This note sets out measurements from paper PMC4336329 (PLoS ONE, 2015).

In all, about 310,000 compounds went through this assay and about 2,200 (0.71%) showed an effect of 50% or more. Effects have a minus sign here. Some of the results follow. Where a SMILES comes first, the peptide text is derived from it. The star is where a group is joined. Boc = CC(C)(C)OC(=O)*

In the assay the target is human ether-à-go-go-related gene (hERG) potassium channel (human, UniProt Q12809). In words: primary screen, population patch clamp on CHO cells stably expressing hERG.
human ether-à-go-go-related gene (hERG) potassium channel, sequence (Q12809 whole entry, looked up): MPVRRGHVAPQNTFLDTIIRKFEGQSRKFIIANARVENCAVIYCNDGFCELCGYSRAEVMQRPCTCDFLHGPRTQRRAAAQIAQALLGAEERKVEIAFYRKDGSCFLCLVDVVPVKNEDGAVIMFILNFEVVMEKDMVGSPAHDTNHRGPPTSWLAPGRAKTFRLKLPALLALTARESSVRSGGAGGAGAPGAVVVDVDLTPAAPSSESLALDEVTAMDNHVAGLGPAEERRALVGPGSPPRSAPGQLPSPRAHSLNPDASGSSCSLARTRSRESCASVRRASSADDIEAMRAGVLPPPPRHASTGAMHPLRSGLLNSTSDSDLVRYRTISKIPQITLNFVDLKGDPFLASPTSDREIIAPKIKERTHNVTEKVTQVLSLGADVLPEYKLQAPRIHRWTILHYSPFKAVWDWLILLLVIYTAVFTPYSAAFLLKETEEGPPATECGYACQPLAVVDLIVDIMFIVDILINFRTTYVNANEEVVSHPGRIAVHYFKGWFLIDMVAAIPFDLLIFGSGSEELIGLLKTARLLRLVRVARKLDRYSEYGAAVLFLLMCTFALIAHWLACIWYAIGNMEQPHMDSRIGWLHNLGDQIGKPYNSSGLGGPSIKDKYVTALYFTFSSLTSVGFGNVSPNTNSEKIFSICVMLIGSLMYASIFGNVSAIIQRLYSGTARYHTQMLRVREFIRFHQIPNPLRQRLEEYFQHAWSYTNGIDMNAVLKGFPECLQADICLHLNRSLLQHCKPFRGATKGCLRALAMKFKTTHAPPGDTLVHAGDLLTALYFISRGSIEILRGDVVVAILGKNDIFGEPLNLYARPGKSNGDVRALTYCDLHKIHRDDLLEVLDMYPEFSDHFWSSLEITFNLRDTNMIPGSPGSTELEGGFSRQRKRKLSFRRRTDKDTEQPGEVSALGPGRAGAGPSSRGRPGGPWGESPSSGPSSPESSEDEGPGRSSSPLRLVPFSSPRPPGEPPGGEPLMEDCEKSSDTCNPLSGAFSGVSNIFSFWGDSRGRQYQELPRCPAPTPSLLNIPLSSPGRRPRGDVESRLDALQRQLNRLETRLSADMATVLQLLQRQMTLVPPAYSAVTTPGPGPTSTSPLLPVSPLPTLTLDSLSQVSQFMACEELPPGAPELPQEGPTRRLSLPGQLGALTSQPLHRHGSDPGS
With `Cc1nn(Cc2ccc(F)cc2)c(C)c1NC(=O)c1cnn2c1NC(c1cccs1)CC2C(F)(F)F` (stereo not drawn), the “hERG current change (%, negative = inhibition) at 1uM” value amounted to 5.29%.
To `COc1ccc(-c2nc3ccccc3s2)cc1O` belongs -2.25%; to `COc1ccccc1N1CCN(c2ccc([N+](=O)[O-])cn2)CC1`, 9.69%; to `COc1ccc(N(CC(=O)Nc2ccc(F)c(F)c2)S(=O)(=O)c2c(C)n[nH]c2C)cc1`, 17.1%.
The result for `CC(=O)Nc1ccc(SCC(=O)c2c(N)n(Cc3ccccc3)c(=O)n(C)c2=O)cc1` reads 13.6%.
To `Cc1ccc(OCC(=O)N/N=C2/SCC(=O)N2Cc2ccco2)cc1` belongs 0.387%.
In the case of `CC1CCN(C(=O)C2COc3ccccc3O2)CC1` (stereo not drawn), the “hERG current change (%, negative = inhibition) at 1uM” value is given as 8.71%.
To `c1coc(CNc2nc3nonc3nc2NCc2ccco2)c1` belongs -9.99%.
To `Cl.c1ccc2c(NCC3CCCO3)nc(N3CCOCC3)nc2c1` (stereo not drawn) belongs -12.3%.
Turning to `CC(=O)[C@@]1(O)CCC2C3C=CC4=CC(=O)CC[C@]4(C)C3CC[C@@]21C` (stereo partly drawn), the “hERG current change (%, negative = inhibition) at 1uM” value was -4.5%.
As for `Cc1cc(=O)[nH]c(SCC(=O)Nc2ccccc2[N+](=O)[O-])n1`, the “hERG current change (%, negative = inhibition) at 1uM” value worked out at 9.89%.
The result for `O=C(NCc1cccs1)c1cc(-c2ccccc2)on1` reads 0.848%; that for `COc1cc(NC(=O)CSc2nc3ccccc3cc2Cc2ccccc2)cc(OC)c1`, 11.5%; that for `CSCCC(NC(=O)OC(C)(C)C)C(=O)NC(C(=O)NC(CC(C)C)C(N)=O)C(C)C` (stereo not drawn) (Boc-Met-Val-Leu-NH2; configuration not given here), 10.6%.
The result for `COc1ccc(N2CCN(CCNC(=O)Nc3cc(Cl)ccc3OC)CC2)cc1` reads 5.47%; that for `CCCc1cc(=O)oc2c3c(cc(OCC(=O)NCc4ccncc4)c12)OC(C)(C)CC3`, -2.85%.
The result for `Cc1cc(C(=O)N/N=C(\CCC(=O)O)c2cccs2)c2ccccc2n1` reads 10.2%; that for `O=C(COc1ccc(Br)cc1)Nc1ccc([N+](=O)[O-])cn1`, 10.3%.
Take `Cn1c2ccccc2c2nnc(SCc3ccc4nonc4c3)nc21`: the “hERG current change (%, negative = inhibition) at 1uM” value is 8.6%.
On to `CC(C)OC(=O)C(=O)NNc1ccccc1`, for which the “hERG current change (%, negative = inhibition) at 1uM” value is listed as -5.99%.
To `COC(=O)c1ccccc1NC(=O)Nc1cnccn1` belongs 14.2%; to `CC(C)(C)OC(=O)N[C@@H](/C=C/c1ccccc1)C(=O)OC(C)(C)C`, -1.92%; to `NC(=O)CCCC1=NS(=O)(=O)c2ccccc2N1`, 8.78%.
To `O=C(CCN1C(=O)/C(=C\c2cccs2)SC1=S)NC1=NCCS1` belongs 6.28%; to `CCOc1ccc(/C=N/NC(=O)c2[nH]c3ccc(C)cc3c2C)cc1`, 10.8%; to `Cn1nccc1NC(=O)Nc1ccc(Cl)cc1`, 19.8%.
To `O=C(c1cccs1)N1CCOCC1` belongs 7.08%; to `COc1cccc(OC)c1NC(=O)CN1CCN(C)CC1.O=C(O)C(=O)O`, 10.4%.
For the molecule `Cc1onc(-c2c(Cl)cccc2Cl)c1C(=O)c1c[nH]c(C(=O)NCCCN2CCOCC2)c1`, the “hERG current change (%, negative = inhibition) at 1uM” value came to 5.12%.
Turning to `Cc1cccc(N(C)C(=O)c2cc(S(=O)(=O)N3CCCCC3)c[nH]2)c1`, the “hERG current change (%, negative = inhibition) at 1uM” value was determined as 8.15%.
To `CCN(CC)C(=O)c1cn(CCC#N)nc1-c1ccc2ccccc2c1` belongs 13.4%; to `CCOC(=O)C(Oc1ccc(=O)[nH]n1)C(C)=O` (stereo not drawn), -2.41%.
The result for `CCN(CC)S(=O)(=O)c1ccc2c(c1)nc(CCC(=O)OCc1c(C)noc1C)n2C` reads -0.101%; that for `O=C(OCCCc1cc2ccccc2c(=O)o1)c1ccco1`, 9.13%.
Turning to `CCOc1ccc(NC(=O)CCN2C(=S)NC(C)(C)CC2C)cc1` (stereo not drawn), the “hERG current change (%, negative = inhibition) at 1uM” value is on record as 2.55%.
As to `CCN(C(=O)COC(=O)c1ccccc1NCCO)C1CCS(=O)(=O)C1` (stereo not drawn), the “hERG current change (%, negative = inhibition) at 1uM” value is 8.53%.
With `COCCN(C(=O)c1cc2c(s1)CCCCC2)c1c(N)n(CC(C)C)c(=O)[nH]c1=O`, the “hERG current change (%, negative = inhibition) at 1uM” value amounted to 6.69%.
The result for `CCCCN(C(=O)c1cc(=O)[nH]c2ccccc12)c1c(N)n(CCCC)c(=O)[nH]c1=O` reads 7.08%.
To `S=c1[nH]nc(-c2ccccc2)n1C1C=CCCC1` (stereo not drawn) belongs 6.31%; to `Cc1cc(C)n(-c2nnc(NC(C)(C)C)nn2)n1`, 18.6%; to `Fc1ccc(-n2c(CN3CCCCC3)n[nH]c2=S)cc1`, 11.1%.
To `CC(=O)c1c(C)[nH]c(C(=O)NCc2ccc(F)cc2)c1C` belongs 13.1%.
`COc1ccc(S(=O)(=O)n2[nH]c(=O)c(CCO)c2C)cc1`: the “hERG current change (%, negative = inhibition) at 1uM” value came to 11.7%.
For the molecule `CCOc1ccc(-n2c(=S)sc3c(=O)n(-c4ccccc4)c(SC)nc32)cc1`, the “hERG current change (%, negative = inhibition) at 1uM” value is recorded as 10.4%.
To `COc1ccc(CCNC(=O)CSc2nc3c(c(=O)n(C)c(=O)n3C)n2C)cc1OC` belongs 13.1%; to `CC(NC(N)=O)C(=O)OCc1ccc(Cl)cc1Cl` (stereo not drawn), 12.3%; to `Cc1cc(C)nc(SCc2ccc(C(=O)N/N=C/c3ccco3)cc2)n1`, -4.21%.
The result for `C=CCn1c(SCc2ccccc2)nnc1-c1cccnc1` reads -4.29%; that for `Cc1ccccc1N1CC(C(=O)N2CC(C)CC(C)C2)CC1=O` (stereo not drawn), 0.657%.
The result for `COc1ccc(CCNC(=O)c2c(O)c3ccccc3[nH]c2=O)cc1OC` reads 12.5%; that for `COc1cccc(CN(C)C(=O)CNC(=O)c2cccs2)c1OC`, 9.62%.
As for `Cc1cc(N)ccc1NC(=O)CN1CCOCC1`, the “hERG current change (%, negative = inhibition) at 1uM” value turned out to be 10.8%.
To `COC(=O)c1cc(Cl)c(NC(=O)c2cc(OC)c(OC)c(OC)c2)cc1OC` belongs 8.03%.
The result for `COc1ccc(-n2nc(C(=O)NCc3ccco3)c3ccccc3c2=O)cc1` reads -0.17%; that for `Cc1ccnn1CCC(=O)N1CCCC(CCC(=O)N2CCN(c3ccccn3)CC2)C1` (stereo not drawn), -11.6%.
To `Cc1cc(C)cc(NC(=S)NC2CC3CCCC(C2)N3C2CCCC2)c1` (stereo not drawn) belongs -52.3%; to `Cc1ccc(C(=O)Nc2ccc(NC(=O)c3cccs3)cc2)cc1[N+](=O)[O-]`, 15.7%.
